According to the supplement of paper PMC12217912:
The list shows a part of the results. The full chains were built here from the parent and the listed change. Values near 0.05 are background.

B1: TEV protease; numbered along this chain (parent)
chain: MGESLFKGPRDYNPISSSICHLTNESDGHTTSLYGIGFGPFIITNKHLFRRNNGTLVVQSLHGVFKVKDTTTLQQHLVDGRDMIIIRMPKDFPPFPQKLKFREPQREERICLVTTNFQTKSMSSMVSDTSCTFPSGDGIFWKHWIQTKDGQCGSPLVSTRDGFIVGIHSASNFTNTNNYFTSVPKNFMELLTNQEAQQWVSGWRLNADSVLWGGHKVFMVKPEEPFQPVKEATQL

Variants of: B1
Experiment: raw area under fraction-flipped curve 0-4 h after induction (AUC4h, not background-subtracted), DNA-recorder readout of cleavage of the substrate (dimensionless); higher = more cleavage of the substrate by the protease variant
Details: temperature: 34 °C; time window: 0-4 h after rhamnose induction
Description: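 In vivo DNA recorder in E. coli TOP10(DE3) ΔrhaA at 34 °C. Each TEVp single-site mutant (parent TEVp 0) is paired with a single-site variant of the 7-mer TEVs (canonical ENLYFQ|S). The substrate sits between flexible linkers in a Bxb1-sfGFP-TEVs-SsrA fusion, so cleavage stabilises Bxb1 and speeds flipping of a recombination array, read by NGS. The value is the raw area under the fraction-flipped curve over 0-4 h after rhamnose induction (AUC4h), with ≥20 reads per time point. It is not background-subtracted; inactive controls average about 0.047.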
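Note: Bxb1 expression induced with 0.2% (w/v) L-rhamnose at OD600 near 0.5, cultures sampled hourly, flipped fraction per protease–substrate barcode pair counted by paired-end Illumina sequencing.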

Variant | area with substrate EALYFQS | area with substrate ECLYFQS | area with substrate EDLYFQS | area with substrate EFLYFQS | area with substrate EGLYFQS | area with substrate EHLYFQS | area with substrate EILYFQS | area with substrate EKLYFQS | area with substrate EPLYFQS | area with substrate EQLYFQS | area with substrate ERLYFQS | area with substrate ESLYFQS | area with substrate ETLYFQS | area with substrate EVLYFQS | area with substrate EWLYFQS | area with substrate EYLYFQS | area with substrate ELLYFQS | area with substrate EMLYFQS | area with substrate EELYFQS
MGESLFKGPPDYNPISSSICHLTNESDGHTTSLYGIGFGPFIITNKHLFRRNNGTLVVQSLHGVFKVKDTTTLQQHLVDGRDMIIIRMPKDFPPFPQKLKFREPQREERICLVTTNFQTKSMSSMVSDTSCTFPSGDGIFWKHWIQTKDGQCGSPLVSTRDGFIVGIHSASNFTNTNNYFTSVPKNFMELLTNQEAQQWVSGWRLNADSVLWGGHKVFMVKPEEPFQPVKEATQL [R10P] | 0.128 | 0.096 | 0.114 | 0.113 | 0.1 | 0.117 | 0.0934 | 0.0973 | 0.009 | 0.118 | 0.0653 | 0.0894 | 0.0965 | 0.0932 | 0.0991 | 0.108 |  |  | 
MGESLFKGPVDYNPISSSICHLTNESDGHTTSLYGIGFGPFIITNKHLFRRNNGTLVVQSLHGVFKVKDTTTLQQHLVDGRDMIIIRMPKDFPPFPQKLKFREPQREERICLVTTNFQTKSMSSMVSDTSCTFPSGDGIFWKHWIQTKDGQCGSPLVSTRDGFIVGIHSASNFTNTNNYFTSVPKNFMELLTNQEAQQWVSGWRLNADSVLWGGHKVFMVKPEEPFQPVKEATQL [R10V] | 0.096 | 0.0567 | 0.103 | 0.056 | 0.0722 |  | 0.0723 | 0.0879 | 0.102 | 0.0775 | 0.0944 | 0.0932 | 0.104 |  | 0.0684 | 0.0626 | 0.071 | 0.0536 | 
MGESLFKGPRAYNPISSSICHLTNESDGHTTSLYGIGFGPFIITNKHLFRRNNGTLVVQSLHGVFKVKDTTTLQQHLVDGRDMIIIRMPKDFPPFPQKLKFREPQREERICLVTTNFQTKSMSSMVSDTSCTFPSGDGIFWKHWIQTKDGQCGSPLVSTRDGFIVGIHSASNFTNTNNYFTSVPKNFMELLTNQEAQQWVSGWRLNADSVLWGGHKVFMVKPEEPFQPVKEATQL [D11A] | 0.119 | 0.0939 | 0.131 |  | 0.107 | 0.0604 | 0.0794 | 0.102 | 0.132 | 0.105 |  | 0.103 |  | 0.0864 | 0.0898 | 0.103 | 0.098 | 0.0912 | 0.0597
MGESLFKGPRLYNPISSSICHLTNESDGHTTSLYGIGFGPFIITNKHLFRRNNGTLVVQSLHGVFKVKDTTTLQQHLVDGRDMIIIRMPKDFPPFPQKLKFREPQREERICLVTTNFQTKSMSSMVSDTSCTFPSGDGIFWKHWIQTKDGQCGSPLVSTRDGFIVGIHSASNFTNTNNYFTSVPKNFMELLTNQEAQQWVSGWRLNADSVLWGGHKVFMVKPEEPFQPVKEATQL [D11L] | 0.0922 | 0.0782 | 0.0917 |  | 0.0895 | 0.0839 | 0.0824 | 0.0804 | 0.104 | 0.0865 | 0.075 | 0.0822 |  | 0.0814 | 0.074 | 0.0739 | 0.0712 | 0.0765 | 0.099
MGESLFKGPRQYNPISSSICHLTNESDGHTTSLYGIGFGPFIITNKHLFRRNNGTLVVQSLHGVFKVKDTTTLQQHLVDGRDMIIIRMPKDFPPFPQKLKFREPQREERICLVTTNFQTKSMSSMVSDTSCTFPSGDGIFWKHWIQTKDGQCGSPLVSTRDGFIVGIHSASNFTNTNNYFTSVPKNFMELLTNQEAQQWVSGWRLNADSVLWGGHKVFMVKPEEPFQPVKEATQL [D11Q] | 0.104 | 0.0974 |  | 0.0878 | 0.0674 |  | 0.0939 | 0.0942 | 0.0894 |  | 0.0989 | 0.0925 |  | 0.0794 | 0.0861 | 0.103 | 0.103 | 0.102 | 0.101
MGEGLFKGPRDYNPISSSICHLTNESDGHTTSLYGIGFGPFIITNKHLFRRNNGTLVVQSLHGVFKVKDTTTLQQHLVDGRDMIIIRMPKDFPPFPQKLKFREPQREERICLVTTNFQTKSMSSMVSDTSCTFPSGDGIFWKHWIQTKDGQCGSPLVSTRDGFIVGIHSASNFTNTNNYFTSVPKNFMELLTNQEAQQWVSGWRLNADSVLWGGHKVFMVKPEEPFQPVKEATQL [S4G] | 0.152 | 0.14 | 0.141 |  | 0.12 | 0.145 | 0.11 | 0.122 | 0.102 | 0.125 | 0.117 | 0.125 |  | 0.116 | 0.124 | 0.133 | 0.124 | 0.116 | 0.159
MGERLFKGPRDYNPISSSICHLTNESDGHTTSLYGIGFGPFIITNKHLFRRNNGTLVVQSLHGVFKVKDTTTLQQHLVDGRDMIIIRMPKDFPPFPQKLKFREPQREERICLVTTNFQTKSMSSMVSDTSCTFPSGDGIFWKHWIQTKDGQCGSPLVSTRDGFIVGIHSASNFTNTNNYFTSVPKNFMELLTNQEAQQWVSGWRLNADSVLWGGHKVFMVKPEEPFQPVKEATQL [S4R] | 0.13 | 0.0961 | 0.176 |  |  |  | 0.0972 | 0.14 | 0.056 | 0.162 | 0.0337 | 0.134 |  | 0.12 |  | 0.145 | 0.126 | 0.157 | 0.165
MGEMLFKGPRDYNPISSSICHLTNESDGHTTSLYGIGFGPFIITNKHLFRRNNGTLVVQSLHGVFKVKDTTTLQQHLVDGRDMIIIRMPKDFPPFPQKLKFREPQREERICLVTTNFQTKSMSSMVSDTSCTFPSGDGIFWKHWIQTKDGQCGSPLVSTRDGFIVGIHSASNFTNTNNYFTSVPKNFMELLTNQEAQQWVSGWRLNADSVLWGGHKVFMVKPEEPFQPVKEATQL [S4M] | 0.0366 | 0.0802 |  | 0.0907 | 0.103 | 0.0904 | 0.0667 | 0.0804 |  | 0.115 | 0.0761 | 0.0998 |  | 0.0685 | 0.0753 |  | 0.0888 | 0.0848 | 
MMESLFKGPRDYNPISSSICHLTNESDGHTTSLYGIGFGPFIITNKHLFRRNNGTLVVQSLHGVFKVKDTTTLQQHLVDGRDMIIIRMPKDFPPFPQKLKFREPQREERICLVTTNFQTKSMSSMVSDTSCTFPSGDGIFWKHWIQTKDGQCGSPLVSTRDGFIVGIHSASNFTNTNNYFTSVPKNFMELLTNQEAQQWVSGWRLNADSVLWGGHKVFMVKPEEPFQPVKEATQL [G2M] | 0.145 | 0.127 |  |  |  |  | 0.123 | 0.121 |  | 0.155 | 0.134 | 0.118 | 0.16 | 0.154 |  |  |  | 0.148 | 
